From patent publication US20070004766A1, “Methods for relaxation of smooth muscle contractions using Trospium” (priority 2005, published 2007) come the findings set out here.

Data set [1] deals with cardiac muscle strips (atrial tissues). As to conditions: for contractility (force of cardiac muscle contractions) as percent of pre-drug contractile force: paced 120 beats per minute, mean and SEM, N = 9; for impairment of cardiac contractility (in words): 0.01 to 0.3 mmol/L, rat atrial strips.
The target of data set [2] is T1, human recombinant muscarinic receptor M-4 (Homo sapiens, UniProt P08173).
T1 sequence (P08173 1-479): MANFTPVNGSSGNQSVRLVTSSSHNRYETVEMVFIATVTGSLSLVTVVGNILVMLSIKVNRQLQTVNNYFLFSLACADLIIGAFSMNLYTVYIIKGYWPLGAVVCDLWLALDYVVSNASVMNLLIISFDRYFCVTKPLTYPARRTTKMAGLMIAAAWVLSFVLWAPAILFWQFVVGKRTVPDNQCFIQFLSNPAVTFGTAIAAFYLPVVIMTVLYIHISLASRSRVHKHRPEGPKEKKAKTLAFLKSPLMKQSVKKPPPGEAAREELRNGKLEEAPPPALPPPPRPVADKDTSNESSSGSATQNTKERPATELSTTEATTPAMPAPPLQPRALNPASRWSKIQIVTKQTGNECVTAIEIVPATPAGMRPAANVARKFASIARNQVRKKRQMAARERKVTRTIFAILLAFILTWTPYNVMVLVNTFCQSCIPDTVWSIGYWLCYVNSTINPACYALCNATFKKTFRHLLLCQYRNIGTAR
Description: biochemical.

Where a name gives a salt, the structure may show the parent alone. Read-outs that look alike come from different tables or passages of the source.

For `O=C(OC1CC2CCC(C1)[N+]21CCCC1)C(O)(c1ccccc1)c1ccccc1.[Cl-]` (stereo not drawn) [Trospium, 3α-hydroxy-spiro[1αH,5αH-nortropane-8,1′-pyrrolidinium]chloride benzilate], the “contractility (force of cardiac muscle contractions) as percent of pre-drug contractile force” value in data set [1] (0.01 mmol/L) came to 96 ± 3%; in data set [1] (0.05 mmol/L) it was 92 ± 5%; in data set [1] (0.1 mmol/L), 81 ± 7%; in data set [1] (0.3 mmol/L), 74 ± 8%. In addition, the “impairment of cardiac contractility (in words)” value in data set [1] is “no significant impairment”. Further, the “unwanted side effects on cardiac contractility (in words)” value in data set [1] (concentrations as high as 0.3 mmol/L) is listed as “did not have unwanted side effects on cardiac contractility”. The Ki in data set [2] is 1 nM.
Turning to `CCN(CC)CC#CCOC(=O)C(O)(c1ccccc1)C1CCCCC1` (stereo not drawn) [Oxybutynin, oxybutynin hydrochloride], the “contractility (force of cardiac muscle contractions) as percent of pre-drug contractile force” value in data set [1] (0.01 mmol/L) is listed as 83 ± 5%; in data set [1] (0.05 mmol/L), 52 ± 7%; in data set [1] (0.1 mmol/L), 27 ± 5%; in data set [1] (0.3 mmol/L), 19 ± 5%. In data set [1] (hydrochloride), the “impairment of cardiac contractility (in words)” value is given as “severely impaired”.
